From article PMC4336329 (PLoS ONE, 2015)
About 2,200 (0.71%) of roughly 310,000 compounds showed an effect of 50% or more. Effects have a minus sign here. Some of the results follow.

These compounds were tested against human ether-à-go-go-related gene (hERG) potassium channel (human, UniProt Q12809) (assay: primary screen, population patch clamp on CHO cells stably expressing hERG).
Sequence of human ether-à-go-go-related gene (hERG) potassium channel (Q12809 whole entry, looked up): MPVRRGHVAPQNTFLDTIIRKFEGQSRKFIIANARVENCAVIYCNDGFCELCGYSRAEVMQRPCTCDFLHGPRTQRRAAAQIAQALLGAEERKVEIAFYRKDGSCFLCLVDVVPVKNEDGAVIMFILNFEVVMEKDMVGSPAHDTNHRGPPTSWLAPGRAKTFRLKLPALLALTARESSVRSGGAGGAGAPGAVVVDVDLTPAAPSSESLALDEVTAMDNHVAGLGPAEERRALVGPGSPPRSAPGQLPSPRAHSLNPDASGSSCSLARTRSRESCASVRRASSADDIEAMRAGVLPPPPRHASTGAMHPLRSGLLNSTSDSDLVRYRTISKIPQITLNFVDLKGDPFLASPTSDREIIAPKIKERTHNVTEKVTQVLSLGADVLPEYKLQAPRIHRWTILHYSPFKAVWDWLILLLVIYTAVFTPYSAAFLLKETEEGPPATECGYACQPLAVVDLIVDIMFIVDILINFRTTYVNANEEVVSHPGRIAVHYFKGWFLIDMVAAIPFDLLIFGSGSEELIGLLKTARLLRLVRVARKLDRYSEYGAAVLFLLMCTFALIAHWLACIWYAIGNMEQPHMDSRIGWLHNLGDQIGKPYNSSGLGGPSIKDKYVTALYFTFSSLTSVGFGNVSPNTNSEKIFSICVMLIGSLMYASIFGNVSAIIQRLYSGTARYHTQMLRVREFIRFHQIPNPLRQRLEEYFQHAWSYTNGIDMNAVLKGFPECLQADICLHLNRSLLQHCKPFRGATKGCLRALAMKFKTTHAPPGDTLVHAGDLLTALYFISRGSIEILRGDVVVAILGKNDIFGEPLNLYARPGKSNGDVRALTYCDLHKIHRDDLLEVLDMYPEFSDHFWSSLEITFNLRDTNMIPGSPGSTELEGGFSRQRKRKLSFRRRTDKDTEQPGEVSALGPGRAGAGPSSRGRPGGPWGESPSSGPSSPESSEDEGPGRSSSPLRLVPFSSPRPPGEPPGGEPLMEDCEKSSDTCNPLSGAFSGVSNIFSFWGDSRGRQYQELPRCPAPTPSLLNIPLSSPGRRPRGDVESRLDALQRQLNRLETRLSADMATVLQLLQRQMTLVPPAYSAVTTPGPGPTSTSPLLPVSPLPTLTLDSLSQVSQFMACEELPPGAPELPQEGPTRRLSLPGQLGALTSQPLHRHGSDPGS

Compound | hERG current change (%, negative = inhibition) at 1uM
Cc1ccc(-n2nc(C)c(C(=O)N3CCN(C(=O)c4ccco4)CC3)c2-n2cccc2)cc1 | 12.3%
CC(C)[C@@H](C(=O)N[C@@H](C(=O)O)c1ccccc1)N1C(=O)N2CCc3c([nH]c4ccccc34)[C@@]2(C)C1=O | 11.8%
CN(CC(=O)Nc1ccccc1Cl)CC(=O)N1CCc2ccccc21 | 3.55%
COc1cc(/C=c2\s/c(=C\C(=O)C(C)(C)C)[nH]c2=O)cc(OC)c1OC | 5.12%
CC1CCCCC1NC(=O)Cn1nc(-c2ccccc2)ccc1=O (stereo not shown) | 6.19%
COc1cc(OC)c(NS(=O)(=O)c2cc3[nH]c(=O)c(=O)[nH]c3cc2C)cc1Cl | 16.9%
COc1ccccc1/C=C/C=N/n1c(-c2ccccn2)n[nH]c1=S | 10.8%
CSCCC(NS(=O)(=O)c1ccc(C)cc1)C(=O)Nc1ccc(C)cn1 (stereo not shown) | 3.64%
CCOC(=O)/C=C1\CN(C(C)c2ccccc2)S(=O)(=O)c2ccccc21 (stereo not shown) | 10.2%
Cc1cc(C)c2c(=O)n(CC(=O)Nc3cccc(Cl)c3C)sc2n1 | 8.78%
C=C(C)CSc1nnc2[nH]c(=O)cc(N)n12 | 14.6%
c1ccc(P(c2ccccc2)c2ccccn2)cc1 | 11.1%
CC(C)CNc1nc(Oc2ccc(=O)[nH]n2)nc(N2CCOCC2)n1 | 7.59%
CC(C)N(Cc1cc2ccccc2[nH]c1=O)C(=O)C1CCCCC1 | -1.03%
O=C(Cn1cnc(S(=O)(=O)N2CCCCC2)c1)NCc1ccco1 | 9.97%
CCCN(C(=O)COC(=O)c1[nH]c(C)c(C(=O)OC)c1C)c1c(N)n(Cc2ccccc2)c(=O)[nH]c1=O | 12.7%
O=C(O)Cn1nc(-c2ccc(F)cc2)oc1=O | 13.3%
COc1cc(NC(=O)CN(c2ccc(C)cc2)S(=O)(=O)c2c(C)noc2C)cc(OC)c1 | 11.9%
Cc1noc(C)c1COC(=O)c1cnc(Cl)c(Cl)c1 | 3.32%
O=C(CSc1ncnc2ccccc12)NCc1ccc2c(c1)OCO2 | 3.3%
C[N+](C)(CC#Cc1ccccc1)CC(=O)c1ccccc1.[Br-] | 8.78%
O=c1[nH]ncc2c3ccccc3n(Cc3ccccc3)c12 | 14.2%

Compound | hERG current change (%, negative = inhibition) at 1uM
CCCCC(=O)Nc1c2c(nn1-c1ccc(C)cc1)CS(=O)(=O)C2 | 4.42%
CCOc1ccc(CCNC(=O)c2ccc(S(=O)(=O)N3CCCC3)cc2)cc1OCC | 12.6%
O=C(Nc1ccccc1O)c1ccc(NC(=O)C2CC2)cc1 | 14.2%
Cc1c(NC(=O)C2CCN(S(=O)(=O)c3ccccc3)CC2)c(=O)n(-c2ccccc2)n1C | 11.6%
CCOc1ccccc1NC(=S)N1CCN(c2nc(-c3ccc(F)cc3)cs2)CC1 | 12.4%
CCC(C(=O)NCc1ccc(C)cc1)c1ccccc1 (stereo not shown) | 7.79%
CCN(CC)CCCN=Cc1c(O)n(Cc2ccccc2)c(=O)c2ccccc12 | -77.3%
COc1cc(C=O)ccc1OS(=O)(=O)c1ccccc1[N+](=O)[O-] | 13.6%
CCN1CCN(C(=O)c2ccccc2NS(=O)(=O)c2ccc(Cl)cc2)CC1.Cl | 8.95%
CC1CCN(CCOCCOc2ccc(Br)cc2Cl)CC1.O=C(O)C(=O)O | -52%
Cn1cccc1Cc1nnc(SCC(=O)Nc2nccs2)n1CCc1ccccc1 | 2.92%
CN(C)Cc1c(C(=O)N/N=C/c2cccc(OCc3c(F)cccc3Cl)c2)nnn1-c1nonc1N | 11.4%
COCCOC(=O)C1=C(N)OC2=C(C(=O)CC(C)(C)C2)C1c1cccnc1 (stereo not shown) | 5.36%
CCNCC(=O)N1c2ccccc2CCc2ccc(NC(=O)OC(C)C)cc21.Cl | 6.96%
COc1ccc(-c2sc3cc(OC)c(OC)cc3c2C#CC2(O)CCCCC2)cc1 | 22.1%
COc1ccc(N2CCN(C(=O)c3ccc4ccccc4n3)CC2)cc1 | -8.46%
COc1ccccc1CCCNC(=O)C1CCC(=O)N(CCCN2CCCC2=O)C1 (stereo not shown) | 20.7%
Cc1ccc(-n2nnnc2SCC(=O)N2CCNC2=O)cc1C | -5.05%
O=C(CCNC(=O)N1CC(=O)Nc2ccccc21)Nc1ccc(Cl)cc1 | 14.3%
COc1ccc(N2CC(C(=O)OCC(=O)Nc3cccc(C)c3C)CC2=O)cc1 (stereo not shown) | 11.7%
O=C(CSc1nc(-c2ccccc2)cs1)N1CCN(C(=O)c2ccco2)CC1 | -12.9%
